Test results: PubChem BioAssay
This list was built around the results that the source calls inconclusive (neither active nor inactive); the mix of calls is not that of the screen. Active and inactive are the calls of the source.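 Rule for the calls: active = viability at or below 27.92% in each of two runs, the all-compound median minus 4 SD; inconclusive = no clear call, values can overlap the other calls; inactive = the rest.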

assay: viability of PTEN-null HCT116 cells – cell-based, HCT116 clonal line, CellTiter-Glo, pilot screen (AID 824); conditions: HCT116 PTEN-deleted viability, 60 h, at 10 µM, hits give low values;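 note: 0% = 20 µM Hyamine control and 100% = vehicle cell control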

SMILES	viability
COc1ccccc1N1CCN(C2=CC(=O)CCC2)CC1	inconclusive: 91.2%
CCCSc1nc(N)c2c3c(sc2n1)CN(C)CC3	inconclusive: 79%
Cc1ccc(Cn2c(Sc3nccc(C)n3)nc3c2c(=O)[nH]c(=O)n3C)cc1	inconclusive: 88.5%
CCC(=O)c1cn(CC(=O)NCC2CCCO2)c2ccccc12 (centres undefined)	inconclusive: 100%
CC(C)Sc1nc(O)c(Cc2ccccc2)c(=O)[nH]1	inconclusive: 101%
Nc1ncnc2c1ncn2C1CCC(CO)C(O)C1 (centres undefined)	inconclusive: 102%
CC(=O)c1cccc(NC(=O)N2CCCC2C(=O)Nc2c(C)cccc2C)c1 (centres undefined)	inconclusive: 89.6%
CCCc1nc2c(o1)CC(CC(C)SCC)CC2=O (centres undefined)	inactive: 98.8%
CC(=O)c1ccc(NC(=O)CSc2nnc(NC(=O)CN3CCOCC3)s2)cc1	inconclusive: 100%
Cc1cc(C)n(-c2cc(=O)n(C)c(=O)n2C)n1	inconclusive: 97.5%
CCOC(=O)Cn1c(CN(C)Cc2ccccc2)nc2c1c(=O)n(C)c(=O)n2C	inconclusive: 86.3%
CC1CCC(NC(=O)Cn2c(=O)[nH]c3ccsc3c2=O)CC1 (centres undefined)	inconclusive: 108%
COc1cccc2c(=O)c3c(cnn3C)n(C)c12	inconclusive: 88.7%
N#Cc1c2n(cnc1=O)CCCCC2	inconclusive: 105%
COc1ccccc1-c1nc(NC(C)=O)n[nH]1	inconclusive: 99.8%
CCOC(=O)C1=C(N)OC2=C(C(=O)CCC2)C1c1cccnc1 (centres undefined)	inconclusive: 97.9%
COC(=O)CCC(=O)Oc1ccc(OC(=O)CCC(=O)OC)cc1	inconclusive: 81.4%
Cc1cccc(C(=O)N2CCN(Cc3ccc4c(c3)OCO4)CC2)c1	inactive: 95.7%
CCn1nc(CC(=O)Nc2ccc(-n3cnnn3)c(C)c2)c2ccccc2c1=O	inconclusive: 94.8%
O=C(NCc1cccs1)C1CCCN(S(=O)(=O)c2ccc3c(c2)OCO3)C1 (centres undefined)	inconclusive: 98.5%

SMILES	viability
N#Cc1c(N)nc2c(c1-c1ccc3c(c1)OCO3)CCCCCC2	inconclusive: 76.4%
CCOc1cc(C2C(C(=O)c3ccco3)=C(O)C(=O)N2CCc2ccccc2)ccc1O (centres undefined)	inconclusive: 102%
Cn1c(=O)cc(N2CCc3ccccc32)[nH]c1=O	inactive: 98.1%
CCn1c(=NC(=O)CN2C(=O)CCC2=O)sc2c(OC)ccc(OC)c21	inactive: 96%
Cc1ccc(S(=O)(=O)N2CCC(C(=O)N[C@@H](C)C(=O)NCC3CCCO3)CC2)cc1 (some centres undefined)	inconclusive: 96.3%
Cc1ccc(C(=O)c2cn[nH]c2-c2cc(Cl)ccc2O)cc1	inconclusive: 96.3%
COCCn1c(=O)[nH]c2cc(C(=O)NCCN3CCN(c4ccccc4F)CC3)ccc2c1=O	inconclusive: 92%
Cc1ccccc1N1C(=O)c2cccc3c(N(C)CCO)ccc(c23)C1=O	inactive: 90.4%
COc1ccc(N2CC(O)=C(c3nc(C)cs3)C2=N)cc1	inconclusive: 94.1%
Cc1c(C(=O)NCC2COc3ccccc3O2)oc2ccc(S(=O)(=O)N3CCOCC3)cc12 (centres undefined)	inconclusive: 58.1%
CCCCCn1c(CNC(=O)COC)nc2ccccc21	inconclusive: 89.6%
CC(=O)Nc1ccc(S(=O)(=O)N2CCC(c3nc4ccc(C)cc4[nH]3)CC2)cc1	inconclusive: 68.9%
C[C@@H](NC(=O)c1coc(=O)c(Br)c1)c1ccccc1	inconclusive: 68.4%
Cc1ccc(Cn2ccc(NC(=O)c3cc(C(C)C)on3)n2)cc1	inactive: 95.1%
CCN1CCN(Cc2nc3c(c(=O)n(C)c(=O)n3C)n2C(C)C(C)=O)CC1 (centres undefined)	inconclusive: 92.7%
Cc1cc(NC(=O)CN2CCN(c3ncccn3)CC2)no1	inconclusive: 97.7%
COc1cc(-c2nc(-c3cccc(C)c3)no2)cc(OC)c1OC	inactive: 81%
CCCCCn1c(=O)[nH]c2cc(C(=O)NCCCN(CC)CC)ccc2c1=O	inconclusive: 70.2%
COc1cc(-c2nnn(CC#N)n2)ccc1OCc1ccccc1	inconclusive: 93.2%
